Results: publication PMC3563359 (Nature communications, 2012)

Molecular target: calmodulin (rat, UniProt P0DP29)
Experiment: crystal structure

B1: CaM binding domain of the SK2-a channel (domain or fragment)
chain: not shown
binding result: binds
